Assay results reported in PubChem BioAssay AID360 (National Center for Advancing Translational Sciences (NCATS), 2006).
Among all 48,000 compounds or so, about 550 (1.1%) were called active. Roughly 4% stayed inconclusive and do not appear here. Cut-off read from the data, not from the text of the source: active = potency below about 15 µM; inconclusive = mostly about 16 µM to 33 µM; inactive = weaker than that. The list shows a part of the results.

Each molecule was assayed against Lysosomal acid glucosylceramidase (Homo sapiens) (UniProt P04062) (assay: Glucocerebrosidase). Settings: purified enzyme, resorufin glucoside fluorescence (screen aimed at inhibitors), 20 min.
Method in brief: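 Normal human glucocerebrosidase (0.2 nM final) was assayed with resorufin β-D-glucopyranoside (30 uM final) in 50mM citric acid/KH2PO4, 10mM sodium taurocholate, 0.01% tween-20, pH 5.9. Compounds were titrated; fluorescence (Ex 548, Em 600) read after 20 min at RT.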
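Note: the screen sought inhibitors.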
Potency is the fitted concentration of half-maximal effect.

Chain of UniProt P04062 (P04062 whole entry, looked up): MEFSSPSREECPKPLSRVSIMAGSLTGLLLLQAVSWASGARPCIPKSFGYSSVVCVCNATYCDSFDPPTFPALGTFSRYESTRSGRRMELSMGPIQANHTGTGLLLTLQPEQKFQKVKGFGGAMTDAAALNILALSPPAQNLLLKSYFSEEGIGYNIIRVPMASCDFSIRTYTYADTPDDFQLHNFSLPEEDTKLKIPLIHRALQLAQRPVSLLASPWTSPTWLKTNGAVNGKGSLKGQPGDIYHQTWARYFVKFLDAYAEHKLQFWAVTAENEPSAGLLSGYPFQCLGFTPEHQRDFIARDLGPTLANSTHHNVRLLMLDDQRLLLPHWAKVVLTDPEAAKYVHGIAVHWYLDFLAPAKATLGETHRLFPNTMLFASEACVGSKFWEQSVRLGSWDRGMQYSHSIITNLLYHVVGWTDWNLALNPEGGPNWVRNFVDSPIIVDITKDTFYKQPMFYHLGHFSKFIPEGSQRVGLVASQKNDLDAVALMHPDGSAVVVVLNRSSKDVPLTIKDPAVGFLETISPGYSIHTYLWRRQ

Potency, inactive:
CN(C(=O)c1ccncc1)c1nnc(-c2ccncc2)s1 > 76.9 µM, CC(=O)NC1CC2CCCC(C1)N2CC(=O)N1CCCc2ccccc21 (stereo not given) > 76.9 µM, Cn1c(=O)n(-c2cccc(Cl)c2)c(=O)n1C > 76.9 µM, CCC(=O)N1CCc2cc(S(=O)(=O)NCCN3CCCCC3CC)ccc21 (stereo not given) > 76.9 µM, COc1ccc(-c2nnc(CSc3nc4ccccc4c(=O)n3C)o2)cc1OC > 76.9 µM, O=C(CNS(=O)(=O)c1ccc(C(=O)N2CCOCC2)cc1)N1CCOCC1 > 76.9 µM, CS(=O)(=O)N1CCCC(C(=O)NCCc2ccccc2)C1 (stereo not given) > 76.9 µM, O=S(=O)(c1ccc2c(c1)OCCO2)N1CCN(c2nc3ccccc3s2)CC1 > 76.9 µM, COc1cccc(N2CC(C(=O)NC3CCCCC3)CC2=O)c1 (stereo not given) > 76.9 µM, CCc1ccccc1OCC(=O)Nc1ccc(S(N)(=O)=O)cc1 > 76.9 µM, c1ccc(Cn2c(Sc3nnnn3-c3ccccc3)nnc2-c2ccccc2)cc1 > 76.9 µM, CCOC(=O)CSc1nc2ccccc2c(=O)n1CC1CCCO1 (stereo not given) > 76.9 µM, c1ccc(N2CCN(c3cnccn3)CC2)nc1 > 76.9 µM, Cc1nc2cc(Cl)ccc2n1CCO > 76.9 µM, CCCN1C(=O)c2ccccc2NC1c1ccc(OC)cc1O (stereo not given) > 76.9 µM, COc1ccccc1C(=O)n1nc(-c2ccc(Cl)cc2)nc1N > 76.9 µM, O=C1CC(c2ccccc2)Sc2ccccc2N1 (stereo not given) > 76.9 µM, Cc1cccc(OCC(=O)Nc2ccc3c(c2)OCCO3)c1 > 76.9 µM, Cc1cccc(OCC2=NS(=O)(=O)c3ccccc3N2)c1, Cc1cc(NC(=O)CCc2ccc(S(=O)(=O)N3CCOCC3)cc2)n(-c2ccccc2)n1 > 76.9 µM, C=CCOc1ccc(C2/C(=C(\O)c3c(C)[nH]c(C(=O)OC)c3C)C(=O)C(=O)N2CCN(C)C)cc1 (stereo not given) > 76.9 µM, COc1ccc(CCN2C(=O)CCC2(C)C(=O)NCc2cccnc2)cc1OC (stereo not given) > 76.9 µM, CC(=O)Nc1ccc(S(=O)(=O)N2CCC(NC(=O)C(Cc3cccn3C)NC(C)=O)CC2)cc1 (stereo not given) > 76.9 µM, CCN(CCO)Cc1cc(=O)oc2c(C)c(C)ccc12 > 76.9 µM, O=C(NCC(=O)N(CCN1CCOCC1)C(C(=O)NC1CCCC1)c1cccs1)c1ccco1 (stereo not given) > 76.9 µM
